# Results as given in PubChem BioAssay AID488969 (Vanderbilt High Throughput Screening Facility, 2010).
# Over roughly 110,000 compounds, “z-score” has its median near -0.1; the highest 2% begin near 2. The list shows a part of the results. Calls of active or inactive are those of the source.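 How the source made its calls: active means z-score in the third read window above 3 or below -3; inactive means the rest.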
# Target: Metabotropic glutamate receptor 8 (Rattus norvegicus) (UniProt P70579)
# Test: rat mGluR8 modulators via GIRK flux, primary screen, cell-based, thallium flux, HTS (AID 488969)
# Details: HEK293 rat mGluR8, GIRK (G protein-gated inwardly rectifying potassium channel) thallium flux, FluoZin2; at 10 µM; stronger effect = higher value; submaximal glutamate (EC20) added with thallium
# UniProt P70579, sequence (P70579 whole entry, looked up): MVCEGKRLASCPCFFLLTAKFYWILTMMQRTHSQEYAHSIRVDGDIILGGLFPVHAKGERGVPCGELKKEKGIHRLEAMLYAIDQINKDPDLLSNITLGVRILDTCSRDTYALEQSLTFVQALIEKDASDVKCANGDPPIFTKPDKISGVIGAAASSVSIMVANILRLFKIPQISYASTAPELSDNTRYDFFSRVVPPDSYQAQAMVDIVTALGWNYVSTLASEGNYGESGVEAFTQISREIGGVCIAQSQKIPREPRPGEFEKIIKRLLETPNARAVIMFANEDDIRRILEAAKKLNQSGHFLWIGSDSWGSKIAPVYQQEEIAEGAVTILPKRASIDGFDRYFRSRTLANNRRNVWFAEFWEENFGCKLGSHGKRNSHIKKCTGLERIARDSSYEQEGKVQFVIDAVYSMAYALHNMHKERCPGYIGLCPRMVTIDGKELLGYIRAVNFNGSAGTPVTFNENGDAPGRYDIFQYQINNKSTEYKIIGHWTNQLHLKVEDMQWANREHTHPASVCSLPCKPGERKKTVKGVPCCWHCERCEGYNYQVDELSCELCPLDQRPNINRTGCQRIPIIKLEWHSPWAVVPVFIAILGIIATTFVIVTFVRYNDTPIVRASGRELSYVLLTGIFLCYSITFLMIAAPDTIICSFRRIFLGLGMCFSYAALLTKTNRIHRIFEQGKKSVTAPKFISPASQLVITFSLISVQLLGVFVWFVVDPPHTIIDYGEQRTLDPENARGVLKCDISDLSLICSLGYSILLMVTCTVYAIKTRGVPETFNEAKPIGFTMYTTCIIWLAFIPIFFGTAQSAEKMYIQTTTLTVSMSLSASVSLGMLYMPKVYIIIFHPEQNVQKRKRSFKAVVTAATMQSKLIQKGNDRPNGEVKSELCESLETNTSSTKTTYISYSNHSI
row,Compound,z-score
1,Cc1ccsc1/C=N/N1CCN(C2c3ccccc3-c3ccccc32)CC1,0.148
2,CCOc1ccccc1C(=O)N(C)Cc1cc2cc(OC)ccc2[nH]c1=O,-0.0838
3,O=C(N/N=C/c1cccc(O)c1)c1ccc(COc2ccc3c(c2)CCC3)o1,-0.108
4,CCOC(=O)c1cccc(NC(=O)c2cnc3ccccc3n2)c1,-0.0643
5,COc1ccc2c(COC(=O)CC3Sc4ccccc4NC3=O)cc(=O)oc2c1 (centres undefined),0.104
6,CN(C(=O)CSc1ccccc1C(=O)O)C1CCCCC1,-0.392
7,COc1ccc(OC)c(-c2cc(C(=O)Nc3c(C)n(C)n(-c4ccccc4)c3=O)no2)c1,-0.0663
8,CCOC(=O)c1ccc2c(c1)N(CC(=O)N1CCCCC1)C(=O)C(C)(C)O2,-0.49
9,Cc1cc(C)n(-c2nc3c(c(=O)n(C)c(=O)n3C)n2CC(O)COc2ccccc2C)n1 (centres undefined),-0.0267
10,COc1cc2[nH]c(=O)n(CCCCCC(=O)N3CCN(c4ccccn4)CC3)c(=O)c2cc1OC,-1.02
11,CC(=O)c1c(C)[nH]c(C(=O)N2CCN(c3cc(Cl)ccc3C)CC2)c1C,0.12
12,Cn1c(=O)cc(SCC(=O)N2CCN(c3ccccn3)CC2)c2ccccc21,0.188
13,COc1cc(/C=N/NC(=O)/C(=C\c2ccc3c(c2)OCO3)NC(=O)c2ccccc2)ccc1O,-0.292
14,O=C(CSc1nccc(=O)[nH]1)Nc1ccc(F)c(Cl)c1,-0.262
15,Cc1ccc([N+](=O)[O-])cc1/C=N/Nc1nnnn1-c1ccccc1,0.0259
16,N#C/C(=C\c1ccc(F)c(F)c1)C(=O)NC1CCCCC1,-0.686
17,CC(=O)c1ccccc1OCCCN1CCCCC1,-0.246
18,Cc1ccc(-n2c(N)c(C(=O)NCc3cccnc3)sc2=S)cc1,0.285
19,CCOC(=O)c1c(C)[nH]c(C(=O)COC(=O)c2ccc(F)c(S(=O)(=O)N3CCOCC3)c2)c1C,0.141
20,CCOC(=O)C1C(=O)C=C(/C=C/c2ccc(N(C)C)cc2)CC1c1ccccc1 (centres undefined),0.242
21,CCCCS(=O)(=O)NC1=NCN(Cc2ccco2)CN1,0.156
22,Cc1ccc(CN2CCN(/N=C/c3ccc(C)s3)CC2)cc1,-0.944

row,Compound,z-score
1,CCOC(=O)/C(C#N)=C/c1c[nH]c2ccccc12,-0.126
2,COC(=O)c1cn(NC(=O)C2CCC(C(C)(C)C)CC2)c(=O)c2ccccc12 (centres undefined),-0.41
3,CCCNC(=S)N1CCN(C)CC1,0.0925
4,COc1cc2c(cc1OC)-c1cc(OCCN3CCOCC3)nc(=O)n1CC2,-0.0263
5,O=C(OCCCCN1C(=O)c2ccccc2C1=O)c1n[nH]c2ccccc12,-0.019
6,CC1CCN(C(=O)CSc2nnc(CNC(=O)c3ccco3)o2)CC1,2.28
7,O=C(NCC(=O)N(c1cccnc1)C(C(=O)NC1CCCC1)c1ccco1)c1cccs1 (centres undefined),-0.357
8,CN(C(=O)c1ccccc1Cl)c1ccccc1,-0.42
9,CNc1nc(Sc2ccc(C)cc2)cc(C(F)(F)F)n1,-0.103
10,CCc1ccccc1-n1c(SCC(=O)N2CCCC2)nnc1-c1ccccn1,-0.215
11,Brc1ccc(-c2csc(/N=C/N3CCOCC3)n2)cc1,-0.844
12,COC(=O)c1oc2ccc(Br)cc2c1NC(C)=O,0.151
13,O=C(O)C(CC(=O)N1CCOCC1)NCc1ccccc1 (centres undefined),-0.198
14,CN1CCc2c(sc3c2c(=O)n(-c2cccc(Cl)c2)c2nncn32)C1,-0.00151
15,N#Cc1c(C#N)c(-c2ccccc2)n(-c2ccc(C(=O)O)cc2)c1N,-0.238
16,CC1CN(S(=O)(=O)c2ccc(C(=O)Nc3nnc(-c4ccc5c(c4)CCCC5)o3)cc2)CC(C)O1 (centres undefined),2.42
17,Cc1ccc(N2CC(C(=O)NC3=NCCS3)CC2=O)cc1 (centres undefined),1.4
18,CCCCNC(=O)Cn1c(=O)n(C)c2ccccc21,-0.417
19,Cc1nc2ccccn2c1/C(O)=C1\C(=O)C(=O)N(CCN(C)C)C1c1cccnc1 (centres undefined),0.486
20,O=C(N1CCOCC1)C1(c2ccc(Cl)cc2)CCCC1,0.767
21,CCn1c(C)nc2cc(C(=O)N=Nc3c(O)[nH]c4c(C)cc(C)cc34)ccc21,-0.176
22,CC(=O)N1CCCc2cc(S(=O)(=O)N(C)CCC#N)ccc21,-0.413

row,Compound,z-score
1,O=C(NC1=NCCS1)c1sc2cc(F)ccc2c1Cl,-0.0304
2,CN(C)c1ccc(/C=C/c2nc3ccccc3s2)cc1,0.051
3,CSc1ccccc1NC(=O)Nc1ccc(Cl)cc1,active: 6.38
4,O=C(c1cccc(F)c1)N1CCc2ccccc21,-0.134
5,CC(C)(C)n1nnnc1C(c1ccccn1)N(Cc1ccccc1)Cc1ccc(Cl)cc1 (centres undefined),-0.111
6,CCNC(=S)NN(c1ccccc1)c1ccccc1,0.837
7,CCc1cc(=O)oc2cc(OCC=C(C)C)ccc12,-0.201
8,CCOc1cc(/C=N/NC(=O)CN2CCOCC2)ccc1OCc1ccccc1,-0.0658
9,COc1ccc(NC(=O)Cc2ccc(Cl)cc2)cc1NC(=O)c1ccco1,-0.903
10,CCOC(=O)Oc1ccc2c(c1)C(C)=CC(C)(C)N2C(=O)OCC,-0.886
11,O=C(COc1ccc(Cl)cc1)NCCC1=CCCCC1,-0.144
12,COc1cc(/C=N/NC(=O)c2ccc(=O)[nH]n2)ccc1O,0.00961
13,COc1ccc(C)cc1NC(=O)c1nnn(Cc2cccc(F)c2)c1N,-0.0513
14,O=C(CS(=O)(=O)Cc1ccccc1)Nc1ccccn1,-0.133
15,O=C(Cc1cccs1)Nc1cccc(-c2nc3ccccc3o2)c1,0.0214
16,Cc1ccc(S(=O)(=O)CCCS(=O)(=O)c2ccc(C)cc2)cc1,0.0762
17,COc1ccc(N(CC(=O)N/N=C/c2ccc(-c3ccc([N+](=O)[O-])cc3)o2)S(=O)(=O)c2ccc(C)cc2)cc1,-0.652
18,CCn1ccnc1C(O)c1ccccc1OC (centres undefined),-0.0835
19,c1ccc(OCc2nn3c(Cn4cnc5ccccc54)nnc3s2)cc1,-1.54
20,O=C(CCCOc1ccccc1)N1CCN(c2ccccc2)CC1,-0.161
21,COc1ccccc1-c1nc(C(N)=O)c2[nH]c(=O)n(-c3cccc(C)c3)c2n1,-0.238
22,COC(=O)c1cc(NS(=O)(=O)c2ccc3c(c2)CCC(=O)N3)cc(C(=O)OC)c1,-0.762

row,Compound,z-score
1,O=C(c1ccco1)N1CCN(c2ncccn2)CC1,-0.183
2,OC(COc1ccc2cc(Br)ccc2c1)CN1CCOCC1 (centres undefined),1.15
3,NC(=O)CSc1nc2cc([N+](=O)[O-])ccc2n1-c1cccc(C(F)(F)F)c1,0.159
4,Cc1ccc(C(=O)CS(C)(=O)=O)cc1,-0.3
5,Oc1ccc(C=Nc2ccc3ncccc3c2)c(O)c1,-0.168
6,CCC(C)NC(=O)c1ccccc1NC(=O)Nc1ccccc1 (centres undefined),active: 6.32
7,O=C(CNC(=O)c1cccs1)OCC(=O)c1ccccc1,-0.369
8,NC(=O)c1cccc2c3c([nH]c12)CCCC3,-0.903
9,CC(=O)NCCc1ccc(S(=O)(=O)NCc2ccc3c(c2)OCO3)cc1,0.18
10,Cc1cc(C(C)(C)C)oc1C(=O)NCCCNC(=O)c1oc(C(C)(C)C)cc1C,-0.461
11,COc1ccc(NC(=O)CC2CCCCC2)cc1OC,0.26
12,N#CCSc1nc2c(sc(=S)n2Cc2ccco2)c(=O)n1-c1ccc(F)cc1,-0.529
13,Cc1ccc(S(=O)(=O)Cc2sc3ccccc3[n+]2C)cc1,-0.915
14,N#CC1(C#N)C2=C(CCCC2)NC(c2ccccc2)C1(C#N)C#N (centres undefined),-0.0942
15,CCn1c(SCc2ccc(C(=O)Nc3nccs3)cc2)nnc1-c1ccc(NC(C)=O)cc1,-0.264
16,CO/N=C/NC(=O)c1cn(-c2ccc(F)cc2)c(=O)c2ccccc12,-0.78
17,O=C(NC1CCCCC1)C(c1ccco1)N(CCc1ccccc1)C(=O)C(F)(F)F (centres undefined),-0.392
18,O=S(=O)(c1ccc(Cl)s1)N1CCCc2cccc(O)c21,-0.145
19,O=C(COc1ccc(Cl)cc1)N1CCCC1,-0.0542
20,CC(=O)Nc1ccc(-c2cc3ccccc3o2)cc1,-0.217
21,N#Cc1cccc(NC(=O)Nc2cccs2)c1,2.55
22,CC(=O)N1c2ccccc2N(Cc2ccc([N+](=O)[O-])cc2)C(=O)C1(C)C,-1.64

row,Compound,z-score
1,O=[N+]([O-])c1ccc(-c2cnc(SCc3ccccc3Cl)[nH]2)cc1,-0.185
2,Nc1c(C(=O)OCC2CCCO2)c2nc3ccccc3nc2n1C1CCCC1 (centres undefined),-2.16
3,O=C(CSc1nnc(-c2ccccc2)n1-c1ccc(Cl)cc1)NC1CCS(=O)(=O)C1 (centres undefined),-0.107
4,CCOC(=O)N1CCC(N2Cc3cccc(C(=O)NCc4ccc(C)cc4)c3C2=O)CC1,-1.16
5,COc1ccc(CCNC(=O)c2ccc(CNS(=O)(=O)c3cccc(Cl)c3)cc2)cc1OC,-0.231
6,COc1ccc(/C=C/C(=O)NCCCc2ccccc2)cc1OC,-0.525
7,CC(C)NC(=O)C1CCN(C(=O)C(C(=O)c2ccccc2)n2cc(Cl)ccc2=O)CC1 (centres undefined),0.609
8,CC(=O)Nc1ccccc1Sc1ccccc1,0.023
9,Cc1csc(SC(C)C(=O)Nc2ccc(S(=O)(=O)N3CCCC3)cc2)n1 (centres undefined),-0.347
10,CC(=O)c1cccc(NC(=O)Cc2ccc3c(c2)CCCC3)c1,0.168
11,CCCc1cc(=O)[nH]c(SCC(=O)N2CCN(S(=O)(=O)c3ccc(C)cc3)C2)n1,0.457
12,O=C1c2cccc(OCC(=O)N3N=C(c4cccs4)CC3c3ccc(F)cc3)c2CCN1Cc1cccnc1 (centres undefined),0.804
13,O=S(=O)(NCCCN1CCN(c2ccccc2F)CC1)c1cccc2cccnc12,1.24
14,Cc1cccc(N(C(=O)CCC(=O)Nc2ccccn2)C(C(=O)NC(C)C)c2ccc(O)cc2)c1 (centres undefined),0.691
15,Cc1[nH]c(=O)[nH]c1C(=O)CCCCC(=O)OCC(=O)Nc1ccccn1,-0.322
16,O=C(N/N=C/c1ccccc1Cl)c1[nH]c2ccc(Br)cc2c1-c1ccccc1,-0.402
17,Cn1c(=O)c2nnn(/N=C(\c3ccccc3)C3CC3)c2n(C)c1=O,-0.0655
18,CCCn1c(=N)n(CCOc2ccc(OC)cc2)c2ccccc21,active: 3.04
19,NNC(=O)c1ccc(Cn2cc(Cl)cn2)cc1,-0.35
20,CCOC(=O)c1ccc(NC(=O)CSc2nnc(COc3ccccc3OC)n2CC)cc1,-0.189
21,C=CCOc1cccc(/C=C2\C(=O)N(Cc3ccc(C)cc3)C(C)=C2C(=O)OC)c1,-0.161
